Reference: the RNAGym collection of RNA variant scans (doi:10.1101/gad.245936.114)
This sample is rich in variants without activity.

B1: tRNA (parent)
chain: CUCUCGGUAGCCAAGUUGGUUUAAGGCGCAAGACUUUAAUUUAUCACUACGAAAUCUUGAGAUCGGGCGUUCGACUCGCCCCCGGGAGAUUUUUUCCUCGAGCAA

Variants of: B1
Assay: nonsense suppression (GFP-seq) (ratio to wild type); higher = more function; SUP4oc tRNA, yeast GFP reporter sort-seq
In short: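 Each variant's nonsense suppression (GFPSEQ) is a cell-share-weighted bin median GFP/RFP relative to the unmutated parent tRNA. Yeast with genome-integrated tRNA variants from a ~3% random-mutation library, a galactose-driven GFP ochre reporter and RFP were grown in raffinose/galactose medium with 80 mg/L adenine, then sorted into GFP/RFP bins for Illumina sequencing. Variants needed ≥100 reads and ≥30 cells.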

Nonsense suppression, ≤ 0.026:
CUCUCGGUAGCCAAGUUGGUUUAAGGCGCAAGACUUUAAUUUAUCACUACGAAACCUAGAGAUCGGGCGUUCGCCUCGCCGCCGGUAGAUUUUUUCCUCGAGCAA [U55C U58A A74C C81G G86U]
CUCUCGGUAGCCAAGUUGGUUUAAGGCGCAAGACUUUAAUUUAUCACUACGAAACCUAGAGAUCGGUCGUUCGACUCGCCCCCGGGAGAUUUUUUCCUCGAGCAA [U55C U58A G67U]
CUCUCGGUAGCCAAGUUGGUUUAAGGCGCAAGACUUUAAUUUAUCACUACGAAACCUGGAGAUCGGGCGUUCGACUCGCCCCCGGGAGAUUUUUUCCUCGAGCAA [U55C U58G]
CUCUCGGUAGCCAAGUUGGUUUAAGGCGCAAGACUUUAAUUUAUCACUACGAAACCUUGAGAUCGGGCGCUCGACUCGCCCCCGGGAGAUUUUUUCCUCGAGCAA [U55C U70C]
CUCUCGGUAGCCAAGUUGGUUUAAGGCGCAAGACUUUAAUUUAUCACUACGAAACCUUGAGAUCGGGCGCUCGACUCGGCCCCGGGAGAUUUUUUCCUCGAGCAA [U55C U70C C79G]
CUCUCGGUAGCCAAGUUGGUUUAAGGCGCAAGACUUUAAUUUAUCACUACGAAAGCUUGCGAUCGGGCGUUCGACUCGCCCCCGGGAGAUUUUUUCCUCGAGCAA [U55G A60C]
CUCUCGGUAGCCAAGUUGGUUUAAGGCGCAAGACUUUAAUUUAUCACUACGAAAGCUUGAGUUCGCGCGUUCGACCCGCCCCCGGGAGAUUUUUUCCUCGAGCAA [U55G A62U G66C U76C]
CUCUCGGUAGCCAAGUUGGUUUAAGGCGCAAGACUUUAAUUUAUCACUACGAAAGCUUGAGAUCGGGCGUUCGCCUCGCCCCCGGGAGAUUUUUUCCUCGAGCAA [U55G A74C]
CUCUCGGUAGCCAAGUUGGUUUAAGGCGCAAGACUUUAAUUUAUCACUACGAAAGCUUGAGAUCGGGCGUUCGGCUCGCCCCCGGGAGAUUUUUUCCUCGAGCAA [U55G A74G]
CUCUCGGUAGCCAAGUUGGUUUAAGGCGCAAGACUUUAAUUUAUCACUACGAAAGCUUGAGAUCGGGCGUUCGACUCGCCCCCGGGUGAUUUUUUCCUCGAGCAA [U55G A87U]
CUCUCGGUAGCCAAGUUGGUUUAAGGCGCAAGACUUUAAUUUAUCACUACGAAAGAUUGAGAUCGGGCGUUCGACUCGCCCCCGGGAGAUUUUUUCCUCGAGCAA [U55G C56A]
CUCUCGGUAGCCAAGUUGGUUUAAGGCGCAAGACUUUAAUUUAUCACUACGAAAGAUUGAGAUCGGGCGUUCGUCUCGCCCCCGGGUGAUUUUUUCCUCGAGCAA [U55G C56A A74U A87U]
CUCUCGGUAGCCAAGUUGGUUUAAGGCGCAAGACUUUAAUUUAUCACUACGAAAGGUUGAGAUCGGGCGUUCGACUCACCUCCGGGAGAUUUUUUCCUCGAGCAA [U55G C56G G78A C81U]
CUCUCGGUAGCCAAGUUGGUUUAAGGCGCAAGACUUUAAUUUAUCACUACGAAAGCUUGAGAUGGGGCGUUCGACUCGCCCCCGGGAGAUUUUUUCCUCGAGCAA [U55G C64G]
CUCUCGGUAGCCAAGUUGGUUUAAGGCGCAAGACUUUAAUUUAUCACUACGAAAGCUUGAGAUCGGGCGUUGGACUCGCCCCCGGGAGAUUUUUUCCUCGAGCAA [U55G C72G]
CUCUCGGUAGCCAAGUUGGUUUAAGGCGCAAGACUUUAAUUUAUCACUACGAAAGCUUGAGAUCGGGCGUUCGAAUCGCCCCCGGAAGAUUUUUUCCUCGAGCAA [U55G C75A G86A]
CUCUCGGUAGCCAAGUUGGUUUAAGGCGCAAGACUUUAAUUUAUCACUACGAAAGCUUGAGAUCGGGCGUUCGACUCGCCCCGGGGAGAUUUUUUCCUCGAGCAA [U55G C83G]
CUCUCGGUAGCCAAGUUGGUUUAAGGCGCAAGACUUUAAUUUAUCACUACGAAAGCUUAAGAUCGGGCGUUCGACUCGCCCCCGGGAGAUUUUUUCCUCGAGCAA [U55G G59A]
CUCUCGGUAGCCAAGUUGGUUUAAGGCGCAAGACUUUAAUUUAUCACUACGAAAGCUUAAGAUCGGGCGUUCUACUCGCCCCCGGGAGAUUUUUUCCUCGAGCAA [U55G G59A G73U]
CUCUCGGUAGCCAAGUUGGUUUAAGGCGCAAGACUUUAAUUUAUCACUACGAAAGCUUCAGAUCGGGCGUUCGACUCGUCCGCGGGAGAUUUUUUCCUCGAGCAA [U55G G59C C79U C82G]
CUCUCGGUAGCCAAGUUGGUUUAAGGCGCAAGACUUUAAUUUAUCACUACGAAAGCUUGACAUCGGGCGUUCGUCUCGCCCCCCGGAGAUUUUUUCCUCGAGCAA [U55G G61C A74U G84C]
CUCUCGGUAGCCAAGUUGGUUUAAGGCGCAAGACUUUAAUUUAUCACUACGAAAGCUUGAUAUCGGGCGUUCGACUCGCCCCCGGGAGAUUUUUUCCUCGAGCAA [U55G G61U]
CUCUCGGUAGCCAAGUUGGUUUAAGGCGCAAGACUUUAAUUUAUCACUACGAAAGCUUGAGAUCGAGCGUUCGACUCGCCACCGGGAGAUUUUUUCCUCGAGCAA [U55G G66A C81A]
CUCUCGGUAGCCAAGUUGGUUUAAGGCGCAAGACUUUAAUUUAUCACUACGAAAGCUUGAGAUCGCGCGUUCGACUCGCCCCCGGGAGAUUUUUUCCUCGAGCAA [U55G G66C]
CUCUCGGUAGCCAAGUUGGUUUAAGGCGCAAGACUUUAAUUUAUCACUACGAAAGCUUGAGAUCGGUCGUUCGACUCGCCCCCGGCAGAUUUUUUCCUCGAGCAA [U55G G67U G86C]
CUCUCGGUAGCCAAGUUGGUUUAAGGCGCAAGACUUUAAUUUAUCACUACGAAAGCUUGAGAUCGGGCCUUCGACUCGCCCCCGGGAGAUUUUUUCCUCGAGCAA [U55G G69C]
CUCUCGGUAGCCAAGUUGGUUUAAGGCGCAAGACUUUAAUUUAUCACUACGAAAGCUUGAGAUCGGGCCUUCGACUCGACCCCGGGAGAUUUUUUCCUCGAGCAA [U55G G69C C79A]
CUCUCGGUAGCCAAGUUGGUUUAAGGCGCAAGACUUUAAUUUAUCACUACGAAAGCUUGAGAUCGGGCCUUCUACUCGCCCCCGGGAGAUUUUUUCCUCGAGCAA [U55G G69C G73U]
CUCUCGGUAGCCAAGUUGGUUUAAGGCGCAAGACUUUAAUUUAUCACUACGAAAGCUUGAGAUCGGGCGUUCGACUCCCCCCCGGGAGAUUUUUUCCUCGAGCAA [U55G G78C]
CUCUCGGUAGCCAAGUUGGUUUAAGGCGCAAGACUUUAAUUUAUCACUACGAAAGCUUGAGAUCGGGCGUUCGACUCUCCCCCGGGAGAUUUUUUCCUCGAGCAA [U55G G78U]
CUCUCGGUAGCCAAGUUGGUUUAAGGCGCAAGACUUUAAUUUAUCACUACGAAAGCUUGAGAUCGGGCGUUCGACUCGCCCCCGAGAGAUUUUUUCCUCGAGCAA [U55G G85A]
CUCUCGGUAGCCAAGUUGGUUUAAGGCGCAAGACUUUAAUUUAUCACUACGAAAGCGUGAGAUCGGGCGUUCGACUCGCCCCCGGGCGAUUUUUUCCUCGAGCAA [U55G U57G A87C]
CUCUCGGUAGCCAAGUUGGUUUAAGGCGCAAGACUUUAAUUUAUCACUACGAAAGCUAGAGAUCGGGCGUUCGACUCGCCCCCGGGACAUUUUUUCCUCGAGCAA [U55G U58A G88C]
CUCUCGGUAGCCAAGUUGGUUUAAGGCGCAAGACUUUAAUUUAUCACUACGAAAGCUUGAGAGCGGGCGUCCGACUCGCCCCCGGGAAAUUUUUUCCUCGAGCAA [U55G U63G U71C G88A]
CUCUCGGUAGCCAAGUUGGUUUAAGGCGCAAGACUUUAAUUUAUCACUACGAAAGCUUGAGAUCGGGCGAUCGACUCGCCCCCGGGAGAUUUUUUCCUCGAGCAA [U55G U70A]
CUCUCGGUAGCCAAGUUGGUUUAAGGCGCAAGACUUUAAUUUAUCACUACGAAAGCUUGAGAUCGGGCGGUCGACUCGCCCCCGGGAGAUUUUUUCCUCGAGCAA [U55G U70G]
CUCUCGGUAGCCAAGUUGGUUUAAGGCGCAAGACUUUAAUUUAUCACUACGAAAUAUUGAGCUCGGGCGUUCGACUAGCCCCCAGGAGAUUUUUUCCUCGAGCAA [C56A A62C C77A G84A]
CUCUCGGUAGCCAAGUUGGUUUAAGGCGCAAGACUUUAAUUUAUCACUACGAAAUAUUGAGUUCGGGCGUUCGACUCGCCCCCGGGAGAUUUUUUCCUCGAGCAA [C56A A62U]
CUCUCGGUAGCCAAGUUGGUUUAAGGCGCAAGACUUUAAUUUAUCACUACGAAAUAUUGAGAUCGGGCGUUCGCCUCGCCGCCGGGAGAUUUUUUCCUCGAGCAA [C56A A74C C81G]
CUCUCGGUAGCCAAGUUGGUUUAAGGCGCAAGACUUUAAUUUAUCACUACGAAAUAUUGAGAUCGGGCGUUCGGCUCGCCCCCGGGAGAUUUUUUCCUCGAGCAA [C56A A74G]
CUCUCGGUAGCCAAGUUGGUUUAAGGCGCAAGACUUUAAUUUAUCACUACGAAAUAUUGAGAUCGGGCGUUCGACUCGCCCCCGGGGGAUUUUUUCCUCGAGCAA [C56A A87G]
CUCUCGGUAGCCAAGUUGGUUUAAGGCGCAAGACUUUAAUUUAUCACUACGAAAUAUUGAGAUCGGGCGUUCGACUCGCCCCCGGGAGGUUUUUUCCUCGAGCAA [C56A A89G]
CUCUCGGUAGCCAAGUUGGUUUAAGGCGCAAGACUUUAAUUUAUCACUACGAAAUAUUGAGAUUGGGCGUUCAUCUCGCCCCCGGGAGUUUUUUUCCUCGAGCAA [C56A C64U G73A A74U A89U]
CUCUCGGUAGCCAAGUUGGUUUAAGGCGCAAGACUUUAAUUUAUCACUACGAAAUAUUGAGAUCGGGCGUUAGACUCGCCCCCGGGAGAUUUUUUCCUCGAGCAA [C56A C72A]
CUCUCGGUAGCCAAGUUGGUUUAAGGCGCAAGACUUUAAUUUAUCACUACGAAAUAUUGAGAUCGGGCGUUCGACUCGCCCACGGGAGAUUUUUUCCUCGAGCAA [C56A C82A]
CUCUCGGUAGCCAAGUUGGUUUAAGGCGCAAGACUUUAAUUUAUCACUACGAAAUAUUAAGAUCGGGCGUUCGACUCGCCCCCGGGAGAUUUUUUCCUCGAGCAA [C56A G59A]
CUCUCGGUAGCCAAGUUGGUUUAAGGCGCAAGACUUUAAUUUAUCACUACGAAAUAUUCAGAUCGGGCGUUCGACUCGACCCCGGGAGAUUUUUUCCUCGAGCAA [C56A G59C C79A]
CUCUCGGUAGCCAAGUUGGUUUAAGGCGCAAGACUUUAAUUUAUCACUACGAAAUAUUUAGAUCGCGCGUUCGACUCGCCCCCGGGAGAUUUUUUCCUCGAGCAA [C56A G59U G66C]
CUCUCGGUAGCCAAGUUGGUUUAAGGCGCAAGACUUUAAUUUAUCACUACGAAAUAUUGAAAUCGGGCGUUCGACUCGCCCCCGGGAGAUUUUUUCCUCGAGCAA [C56A G61A]
CUCUCGGUAGCCAAGUUGGUUUAAGGCGCAAGACUUUAAUUUAUCACUACGAAAUAUUGACAUCGGGCGUACGACUGGCCCCCGGGAGAUUUUUUCCUCGAGCAA [C56A G61C U71A C77G]
CUCUCGGUAGCCAAGUUGGUUUAAGGCGCAAGACUUUAAUUUAUCACUACGAAAUAUUGAUAUCGGGCGUUCGACUCGCCCCGGGGAGAUUUUUUCCUCGAGCAA [C56A G61U C83G]
CUCUCGGUAGCCAAGUUGGUUUAAGGCGCAAGACUUUAAUUUAUCACUACGAAAUAUUGAGAUCCGGCGUUCGACUCGCCACCGGGAGAUUUUUUCCUCGAGCAA [C56A G65C C81A]
CUCUCGGUAGCCAAGUUGGUUUAAGGCGCAAGACUUUAAUUUAUCACUACGAAAUAUUGAGAUCCGGCGUUCGACUCGCCCCCGUGAGAUUUUUUCCUCGAGCAA [C56A G65C G85U]
CUCUCGGUAGCCAAGUUGGUUUAAGGCGCAAGACUUUAAUUUAUCACUACGAAAUAUUGAGAUCCGGCGUACGACUCGCCCCCGGGAGAUUUUUUCCUCGAGCAA [C56A G65C U71A]
